Assay results: PMC9756848, “Kinetics of free and ligand-bound atacicept in human serum” (Frontiers in Immunology, 2022)

Biological target: the molecule itself
Test: SEC; Superdex S200 Increase HR 10/30, PBS 10 ug/ml BSA, 0.7 ml/min; proteins alone or Flag-ligand with a 20-fold mass excess of atacicept; fractions analysed by Western blot; complexes of fractions 10 and 11 concentrated and run again

B1: Flag-hBAFF (ligand)
chain: not shown
notes: linker between the Flag tag and hBAFF; human BAFF (BLyS), […]; also called Flag-BAFF; human Flag-BAFF; source: 293T, transient transfection, purified on anti-Flag agarose; not shown: Flag, N-terminal, kept
- stoichiometry N: 3
